Common to all, as to test: co-IP; GFP-tagged TOPBP1 constructs captured on GFP-Trap magnetic agarose from Benzonase-treated lysates of transfected 293FT cells (200 mM NaCl, 2 mM EDTA, 4 °C); endogenous partners detected by blot
Test [1] has as its target GFP-tagged full-length TOPBP1 K154A/K155A (BRCT1 mutant) (UniProt Q92547).
Test [2] addresses GFP-tagged full-length TOPBP1 K704A (BRCT5 mutant) (UniProt Q92547).
Test [3] concerns the target GFP-tagged full-length TOPBP1, wild type (UniProt Q92547).

The chains behind the UniProt entries cited, without tags or fusion partners. Where a name states a change or a piece, a line headed by the entry shows the natural chain unless it says otherwise.
UniProt Q92547: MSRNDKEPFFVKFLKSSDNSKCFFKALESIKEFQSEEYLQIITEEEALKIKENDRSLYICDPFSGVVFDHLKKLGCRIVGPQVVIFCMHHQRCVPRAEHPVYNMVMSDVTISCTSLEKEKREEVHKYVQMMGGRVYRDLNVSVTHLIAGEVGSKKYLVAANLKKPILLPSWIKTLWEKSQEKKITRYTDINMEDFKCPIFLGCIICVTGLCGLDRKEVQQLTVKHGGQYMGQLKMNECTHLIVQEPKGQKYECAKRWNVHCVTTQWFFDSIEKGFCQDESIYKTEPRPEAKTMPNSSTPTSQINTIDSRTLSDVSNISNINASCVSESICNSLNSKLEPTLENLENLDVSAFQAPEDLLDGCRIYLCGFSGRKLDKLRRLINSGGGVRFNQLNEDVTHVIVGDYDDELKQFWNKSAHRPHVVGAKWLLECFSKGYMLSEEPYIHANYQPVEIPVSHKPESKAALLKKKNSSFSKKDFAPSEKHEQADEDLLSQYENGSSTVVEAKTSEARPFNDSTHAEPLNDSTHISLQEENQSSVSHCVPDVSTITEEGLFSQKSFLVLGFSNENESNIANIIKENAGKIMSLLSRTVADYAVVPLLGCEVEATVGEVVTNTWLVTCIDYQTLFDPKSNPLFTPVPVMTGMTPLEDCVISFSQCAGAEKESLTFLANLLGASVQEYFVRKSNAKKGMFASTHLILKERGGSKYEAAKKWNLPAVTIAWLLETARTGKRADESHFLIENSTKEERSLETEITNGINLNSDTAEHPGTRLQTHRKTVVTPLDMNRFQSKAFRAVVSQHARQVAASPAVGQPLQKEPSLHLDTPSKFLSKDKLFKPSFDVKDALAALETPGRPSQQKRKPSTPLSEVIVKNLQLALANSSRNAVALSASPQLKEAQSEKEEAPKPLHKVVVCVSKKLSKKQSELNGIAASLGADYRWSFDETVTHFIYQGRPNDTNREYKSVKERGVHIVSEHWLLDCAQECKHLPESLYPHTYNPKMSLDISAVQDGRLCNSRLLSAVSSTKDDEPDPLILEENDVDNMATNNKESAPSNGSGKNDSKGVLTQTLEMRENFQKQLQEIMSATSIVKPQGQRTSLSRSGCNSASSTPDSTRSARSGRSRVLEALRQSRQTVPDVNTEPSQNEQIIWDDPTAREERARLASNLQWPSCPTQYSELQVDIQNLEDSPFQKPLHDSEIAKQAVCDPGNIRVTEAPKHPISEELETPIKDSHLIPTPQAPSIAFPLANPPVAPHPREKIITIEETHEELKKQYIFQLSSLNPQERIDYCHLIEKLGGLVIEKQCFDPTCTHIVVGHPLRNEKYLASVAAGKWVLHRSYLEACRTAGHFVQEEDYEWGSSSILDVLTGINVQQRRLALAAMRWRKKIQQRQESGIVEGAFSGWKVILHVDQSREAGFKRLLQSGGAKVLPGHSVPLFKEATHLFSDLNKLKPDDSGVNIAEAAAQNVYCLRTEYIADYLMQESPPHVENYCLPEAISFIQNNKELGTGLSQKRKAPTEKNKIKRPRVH
UniProt P54132: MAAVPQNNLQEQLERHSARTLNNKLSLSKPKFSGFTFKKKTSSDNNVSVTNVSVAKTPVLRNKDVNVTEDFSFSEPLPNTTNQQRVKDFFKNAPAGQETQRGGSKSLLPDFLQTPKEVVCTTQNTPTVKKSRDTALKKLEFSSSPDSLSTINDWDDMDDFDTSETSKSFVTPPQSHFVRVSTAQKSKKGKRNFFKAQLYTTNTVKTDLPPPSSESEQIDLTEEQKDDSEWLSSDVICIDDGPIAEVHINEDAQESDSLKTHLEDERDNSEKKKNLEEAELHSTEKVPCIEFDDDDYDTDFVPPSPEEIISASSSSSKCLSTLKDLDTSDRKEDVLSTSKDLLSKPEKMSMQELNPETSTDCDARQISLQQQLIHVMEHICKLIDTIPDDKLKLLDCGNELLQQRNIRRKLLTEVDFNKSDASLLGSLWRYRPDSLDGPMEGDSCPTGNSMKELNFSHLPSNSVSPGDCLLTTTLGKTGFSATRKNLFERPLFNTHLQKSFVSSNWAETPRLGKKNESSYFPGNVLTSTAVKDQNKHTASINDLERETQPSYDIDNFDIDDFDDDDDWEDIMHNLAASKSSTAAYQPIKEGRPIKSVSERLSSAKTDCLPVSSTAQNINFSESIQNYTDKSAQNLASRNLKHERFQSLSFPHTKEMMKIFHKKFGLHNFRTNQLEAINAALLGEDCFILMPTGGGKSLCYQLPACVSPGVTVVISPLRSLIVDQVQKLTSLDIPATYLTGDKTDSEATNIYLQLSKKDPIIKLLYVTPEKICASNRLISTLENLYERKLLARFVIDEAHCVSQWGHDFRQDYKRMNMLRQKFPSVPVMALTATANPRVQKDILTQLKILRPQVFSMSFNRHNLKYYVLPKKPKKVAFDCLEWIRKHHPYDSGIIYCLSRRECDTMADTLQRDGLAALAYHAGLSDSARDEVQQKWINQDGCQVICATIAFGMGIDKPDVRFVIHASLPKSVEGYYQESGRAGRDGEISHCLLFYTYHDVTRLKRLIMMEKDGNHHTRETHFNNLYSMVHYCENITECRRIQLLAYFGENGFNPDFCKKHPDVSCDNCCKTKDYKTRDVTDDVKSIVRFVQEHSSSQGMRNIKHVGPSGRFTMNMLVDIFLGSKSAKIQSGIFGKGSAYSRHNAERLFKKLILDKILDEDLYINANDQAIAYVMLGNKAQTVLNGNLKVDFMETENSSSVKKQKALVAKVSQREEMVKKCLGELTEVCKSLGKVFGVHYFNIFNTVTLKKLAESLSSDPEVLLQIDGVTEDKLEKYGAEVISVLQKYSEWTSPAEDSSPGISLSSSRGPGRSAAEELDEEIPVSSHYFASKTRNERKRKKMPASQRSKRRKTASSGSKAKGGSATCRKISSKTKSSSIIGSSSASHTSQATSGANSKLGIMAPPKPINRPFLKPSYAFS

Results are given in words; binding and its absence hold for the method and conditions named. Binding seen in cells or lysates may run through a third protein. Some results given as binding are weak or reduced against the parent protein; the word gives no strength.

For “BLM, endogenous (293FT) (from UniProt P54132 1-1417)”, the figures for the binding entry in test [1], in test [2] and in test [3] were “binds”, “no binding” and “binds”, respectively.

(Values after publication PMC6949271.)
